Measured values reported in the supplement of paper PMC11417369.
This is one part of the list.

tested on: PfSIP2 AP2 domain 1 (GST-tagged); test: gcPBM binding intensity (ln(normalized median fluorescence intensity)); higher = stronger DNA binding
How it was run: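 Alexa488 anti-GST antibody, scanned at 488 nm, detected GST-tagged P. falciparum DNA-binding domains that had been expressed in E. coli and incubated for 1 h on an Agilent 4 × 180k array. The array carried primer-extended double-stranded 36-bp intergenic genomic probes and negative controls. Binding intensity is the highest Masliner-normalised natural-log median intensity across replicate spots of either orientation of each probe.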

Row | Sequence | gcPBM binding intensity (ln)
1 | TGTTATTATAACATTTTTTTCAAAATAGCTTTAGAA [CACACA_negctrl_site266] | 6.77
2 | ATAATACCCAAGCACACACACACACCGATATATATA [CACACA_site8344] | 7.35
3 | AATTTATAAGAATAAAGTACTAAAGATACAACTTTA [XGTACX_site7153] | 6.87
4 | ATTAAAGGAAGCAAAACATGCAACAGCAATATTGCA [TGCATGCA_site452] | 6.67
5 | ATATATTGGAGCACAACACACACAAGTATATATATG [CACACA_site8435] | 7.21
6 | AAAAAAAAATACAAAATAGCAATAAATACACAAACG [GTGCAC_negctrl_site707] | 7.01
7 | AAAAAAAAAAAAAACACACAGAACAATATATAAATA [CACACA_site982] | 7.11
8 | AAAAAAAAAAAAAAAACATGCACAAATTATAAGTGA [TGCATGCA_site378] | 7.66
9 | ACTACATAATACTATTCACACATTTTTTTTTTTTTT [CACACA_site5794] | 7.13
10 | AATTTTTTTTTAATCATGCACACTGTTAAAAGAATA [CACACA_site1240] | 8.99
11 | AAAAAATAGAATATAAAAATAAAGGAATTAAATTAA [XGTACX_negctrl_site420] | 6.47
12 | TTTTAAAAATTAAGTGCATGTCCTTATAAAAAAAAA [TGCATGCA_site845] | 8.67
13 | TTCATATATTTAGGACGTACTTTTATATTACTATAT [XGTACX_site6456] | 6.93
14 | ATATGGAATAATACGCGTACACACATATATATATTA [XGTACX_site307] | 7.3
15 | TTTATATCATTACAAGTGCATATCATCATAAATTCT [GTGCAC_site9878] | 8.22
16 | TCTTGATTATATAGTACTACACATTATAAAAAAATT [XGTACX_site2465] | 7.21
17 | TATATATAAATATATGTGCACTTTTTATATTTATAT | 10.6
18 | AAAATTACTATATGAACACACATGATTAGATATATG [CACACA_site3083] | 6.76
19 | TATATATATATATACACACACACCCTAAAAATATAT [CACACA_site1611] | 9.07
20 | TGAAAGAATTAATTTTGTACATATAAAAATTTTATT [XGTACX_site8500] | 6.9
21 | TTTTTATTTTTAAAGGCACACACATTTTTATTTTTA [CACACA_site8624] | 7.04
22 | AATAAATAAATAATATAATGAAATTATAAAATGTGG [TGCATGCA_negctrl_site385] | 6.82

Row | Sequence | gcPBM binding intensity (ln)
23 | AAATGAAATTTGTATACACACAAATATATTTATATA [CACACA_site6525] | 6.85
24 | TATTTGTGCCAAAAATGAAAAAGTTTGTATAAAACC [CACACA_negctrl_site1406] | 7.04
25 | AATGATCATAAATACACACACACAAAAAAAAAAAAA [CACACA_site6072] | 7.1
26 | TATTAAAAAAATGTATGTACATATATAAATTTTTTT [XGTACX_site1094] | 6.96
27 | GATGGATTTATTTAAAGTACATATTTAAAAAACTGT [XGTACX_site7567] | 6.89
28 | TTTCTCCCATTTTTTAGTACACAAAATATATATGTA [XGTACX_site7218] | 7.29
29 | AAAGTAAAAGAAAGCACACACACATGTATATATGTA [CACACA_site3857] | 6.86
30 | AAAAAAAAAAAATATACACACACATATATATATATA [CACACA_site9123] | 9.56
31 | AACAACAATTTCGTCATACACACATTCAGAATATAT [CACACA_site2371] | 7.11
32 | CAGGCGTGAAATATACGTACACACATTATTTATATT [XGTACX_site5337] | 7.03
33 | ATATAAATTATTTACACACAAACATTTATACTTTTA [CACACA_site3448] | 7.17
34 | TTTTGTTACGGCAAGGAAGTTAAGCATAAATGAATG [GTGCAC_negctrl_site173] | 7.21
35 | ATATTTTTTGCTATTACACACAAGGGATTATTATTT [CACACA_site7776] | 7.3
36 | AAGAAAAAAAATATATATGTATATATTATTTTAACA [TGCATGCA_negctrl_site534] | 6.83
37 | TAATAATAGTCTAATACATGCATCGATAACGGAACT [TGCATGCA_site98] | 6.75
38 | ATGTTAATAACTTGTGGTACTGTTATAATTTAGTAA [XGTACX_site2114] | 6.99
39 | ATATATCTACTGTGTTGTACTGTTAATATTTGAATA [XGTACX_site1931] | 7.05
40 | ATATAAGTGTATCTAACACACAAATATGTAAAAATG [CACACA_site7006] | 6.93
41 | TATATACACATATATACACACACATATATATATATA [CACACA_site9127] | 9.28
42 | GACAAAAAATTAAAATAAAATAATAATATAATAAAA [GTGCAC_negctrl_site234] | 6.66
43 | ATATAATAGTTATATTGTACATAAATTATACACCTT [XGTACX_site628] | 6.83
44 | TATAAACACCCATATAAACACACATATAAACCAACA [CACACA_site8790] | 7.25

Row | Sequence | gcPBM binding intensity (ln)
45 | ATACGCACACATATATGTACATATTGTATATATATA [XGTACX_site3962] | 8.11
46 | ACAATTTACACTTAAACACACAAAAAAAAATTATAT [CACACA_site2065] | 6.98
47 | AAGGTAGAAATATGTTGTACGGTTTGGAGGAAGCAA [XGTACX_site1105] | 7.26
48 | GCATCGATCAAACATACACACATGGTTAATAAAAAT [CACACA_site8651] | 7.17
49 | ACATATATATTCATATGTACATATACATACATACAT [XGTACX_site4563] | 8.12
50 | GTTAAAATTGGGGACGCATGTTCCTTTCCTTTTTTT [TGCATGCA_site1002] | 6.64
51 | TTATAAATGTAACGATGTACTTTTAAAAGTTTCCTT [XGTACX_site109] | 6.88
52 | GGAATGGTACATGATACACACACGCACATATATATA [CACACA_site5825] | 7.5
53 | TATATTAAACAATATACACACATTAATGTATACATA [CACACA_site2755] | 6.91
54 | TTTTTTATAAAATTTTTTTTTTAAAATATTAAAACT [XGTACX_negctrl_site240] | 6.74
55 | AAGCTATATATAGGCAGTACTTTGTAAGTGTAGATA [XGTACX_site8365] | 7.05
56 | AAAAAAAAAAAAAAAACACACAGAACAATATATAAA [CACACA_site4698] | 7.4
57 | TATATGCATATACATACACACATAACACATACGTTT [CACACA_site3832] | 7.23
58 | TTTCTAATTCTTAGTGGTACACAGTTCTGCTGATAT [XGTACX_site2391] | 7.5
59 | ATATGTCACTTGTATACACACATATAGATTTCAATC [CACACA_site7519] | 7.11
60 | TATTTGTTGTGAGTCACACATATATATATATATATA [CACACA_site4240] | 9.59
61 | TTTTCATAAAATCATTGTACATTTATCGTATATTAA [XGTACX_site3855] | 6.95
62 | ATATTGTAAGTAAACACACACACATATATATGTATA [CACACA_site8124] | 7.11
63 | AAAATATCTTATATATGTACATATTTATATTTATAT [XGTACX_site6027] | 6.96
64 | TTGTTTTTTTTTGGCTGTACGTTCATAAATTTTTTT [XGTACX_site4165] | 7.22
65 | TACTATAAGATATATACACACAAGAAATACAAAACG [CACACA_site6764] | 7.53
66 | ATGATTATTTTAAAAAGTACTAATTATTATTTTTTT [XGTACX_site7242] | 6.93

Row | Sequence | gcPBM binding intensity (ln)
67 | GAATATGAATATTTGCGTACTTATATAACTGTTCTA [XGTACX_site883] | 6.83
68 | AAAAAAAATAATAATACACACAATATGATATGTACA [CACACA_site850] | 6.87
69 | ATACACATTCGAAATAACAAAAAAATACATACACAT [GTGCAC_negctrl_site628] | 7.04
70 | TTTTTATACAATTAGACACACACAAAAAGTATATAT [CACACA_site8272] | 7.11
71 | ATATATGTATATTTTTGTACGCATAAATATATTTTT [XGTACX_site827] | 7.13
72 | TGCTTAATTTACGTGGGTACATACACCTCATATATT [XGTACX_site3093] | 7.29
73 | TTAATACATATATATATATTATATATATATATATAT [TGCATGCA_negctrl_site177] | 9.12
74 | ATTATTTTAATTTTAATTTTTTTTTTTTTTTGTTTT [CACACA_negctrl_site1063] | 6.62
75 | TATTTTTCCATAAAAATTTATATAGAAACAAATAAT [GTGCAC_negctrl_site103] | 7.11
76 | CCCTTTTATTAAAATTCACACACATAAATTTTTATA [CACACA_site8611] | 7.28
77 | TTACCGTAAAAATTTTGTACATAAAATAATATATAA [XGTACX_site532] | 7.23
78 | CACATACATATATATACACACAAATATATATACACA [CACACA_site8164] | 7.25
79 | GATATAAAATATTGGTGTACTTTTTTTTTTTTTTTT [XGTACX_site7174] | 7.74
80 | GTATGTGTGTCAAGTCGTACTTACCTTTAAATTTTT [XGTACX_site2507] | 7.18
81 | ACCATGAAAATATTATGTACATATGTATTATATATA [XGTACX_site408] | 7.18
82 | GAGTGAGCTAATAAAAGTACGTAATAAACAAACGCA [XGTACX_site131] | 6.96
83 | ATAGCTGTATTTAATACACACAAAACTTTCATTCCA [CACACA_site5868] | 6.91
84 | TTTTTTTGTTTTGTTTTTTTTTTTTTTTTTTTTTTG [CACACA_negctrl_site570] | 6.76
85 | TTTTTATATTTTTGCACACATTCTTTACTCTTCAAA [CACACA_site2210] | 7.57
86 | TATATATATGGACACACACACATATAAATAAATAAA [CACACA_site4406] | 7.46
87 | TTAAAAAAAAAACACACACACATACACATATATATA [CACACA_site3299] | 7.45
88 | TTTTTTTTTTTTTTTTTTTCTATTTTACTGTTTCGT [CACACA_negctrl_site850] | 7.09
